Test results published in PubChem BioAssay AID686979 (National Center for Advancing Translational Sciences (NCATS), 2013).
The whole screen tested about 420,000 compounds, of which about 50,000 (12%) were called active. The shares of active, inactive and inconclusive entries below differ from those in the screen. Calls follow the shape of the dose curve; as a rule, active = well fitted inhibition curve with a large enough effect; inconclusive = small, poorly fitted or top-dose-only effect; inactive = flat fitted curve, though single readings scatter. No potency is given beside an inconclusive call; the fits are too rough.
% is scaled to controls: 0 for no effect and ±100 for the full control effect; potency is read from the fitted curve at half-maximal effect; tags tell the direction and shape of the fitted curve.

Test: qHTS for Inhibitors of human tyrosyl-DNA phosphodiesterase 1 (TDP1): qHTS in cells in presence of CPT; also: nearly all actives have a fitted effect of over 55% in size
Conditions: chicken DT40 Tdp1-/-;hTDP1 cells + 20 nM CPT, ATP luminescence, 48 h; activity change, negative = growth inhibition: at 46.2 µM (top of the series)
Method in brief: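 Chicken DT40 Tdp1-/- cells stably complemented with human TDP1 were seeded at 400 cells/well in medium containing 20 nM camptothecin, exposed to pin-transferred compounds, and grown at 37 °C for at least 48 hr. Viability was read as ATP luminescence.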
In the case of `CCc1ccccc1N1C(=O)C2CC=CCC2C1=O` (stereo not given), the Potency is reported as inconclusive [inhibitor, partial curve]. In the case of `CC1(C(=O)NCc2cccc(C(F)(F)F)c2)CCN1C1Cc2ccccc2C1` (stereo not given), the Potency is reported as inconclusive [inhibitor, single point]. For `CCN(CC)S(=O)(=O)c1ccc2c(c1)c(=O)c(C(=O)NCc1ccccc1Cl)cn2C`, the Potency was active: 9.2 µM. In the case of `Cc1ccc(NS(=O)(=O)c2ccc(C(=O)N3CC(C)CC(C)C3)cc2)cc1` (stereo not given), the Potency is reported as active: 20.6 µM. With `CN1CCN(S(=O)(=O)c2cccc(C#N)c2)C(c2ccccc2)C1` (stereo not given) the “activity change, negative = growth inhibition” value was inactive: -6.11%. With `CC(=O)N1CCC2(CCCN(C(c3ccccc3)c3ccccc3)C2)CC1` the Potency was inconclusive [inhibitor, single point]. With `COc1ccc(-c2cc(C)no2)cc1S(=O)(=O)NCc1ccco1` the Potency was inconclusive [inhibitor, single point]. For `Cc1noc(-c2ccccc2)c1NC(=O)Nc1ccc(Cl)cc1`, the Potency was inconclusive [inhibitor, single point]. For `Cc1ccc(OCc2nc(-c3ccccn3)no2)c(Br)c1`, the “activity change, negative = growth inhibition” value was inactive: -27.8%. In the case of `CC(C)(C)OC(=O)C[C@H]1C/C=C\C[C@H](CC(=O)N(CCO)Cc2ccccc2)C(=O)N2CCC[C@H]2COC1=O`, the Potency is reported as active: 25.9 µM. For `N#C/C(=C/c1cn(-c2ccccc2)nc1-c1cccc(OCc2ccccc2)c1)C(=O)NCCCn1ccnc1`, the Potency was inconclusive [inhibitor, single point]. With `S=c1[nH]nc(-c2ccncc2)n1CC1CCCO1` (stereo not given) the “activity change, negative = growth inhibition” value was inactive: -7.39%. In the case of `CCCCNC(=O)C1(C)CCN1C(=O)c1cc(OC)ccc1Br` (stereo not given), the Potency is reported as inconclusive [inhibitor, single point]. In the case of `CC1CC(C)CN(c2nc3c(c(=O)n(C)c(=O)n3C)n2CCSc2ncccn2)C1` (stereo not given), the Potency is reported as inconclusive [inhibitor, single point]. With `N#Cc1c(C(F)(F)F)cc(-c2ccccc2)n(N)c1=O` the activity change, negative = growth inhibition was inconclusive: -23% [inhibitor]. With `NS(=O)(=O)c1ccc(S(=O)(=O)N(Cc2ccccc2F)CC2CCCO2)cc1` (stereo not given) the activity change, negative = growth inhibition was inconclusive: -35.5% [inhibitor]. In the case of `O=C(CSc1c2c(nc3cc(Cl)ccc13)CCCC2)N1CCN(c2ccccc2)CC1`, the Potency is reported as active: 7.31 µM. For `Nc1ccn(CC(=O)N2CCN(c3ccccn3)CC2)c(=O)n1`, the “activity change, negative = growth inhibition” value was inactive: 9.16%. For `COc1ccc(-n2c(SCc3ccccc3F)nc3c([nH]c4ccccc43)c2=O)cc1OC`, the Potency was active: 25.9 µM. In the case of `Cc1cc(C)c2nc3sc(=Cc4ccc(-c5ccccc5C(=O)O)o4)c(=O)n3c2c1`, the activity change, negative = growth inhibition is reported as inconclusive: -31.1% [inhibitor].
